Data taken from the supplement of paper PMC8047034.
Counter-ions that a name gives are not always drawn. This is one part of the list. Many values rest on one well or one pass, so single values are uncertain.

Experiments:
OVCAR4 = experiment: log2 surviving fraction (library drug vs vehicle, or drug + carboplatin vs carboplatin alone; relative to plate median); ovarian cancer lines: OVCAR4 is platinum-sensitive and Ov4Carbo platinum-resistant; higher = more cell survival; details: library drug concentration 10 µM, 7 days
Ov4Carbo = experiment: as above; details: library drug concentration 10 µM, 7 days

Row | Structure (SMILES) | log2 surviving fraction (OVCAR4; carboplatin co-treatment 0 µM) | log2 surviving fraction (OVCAR4; carboplatin co-treatment 5 µM) | log2 surviving fraction (Ov4Carbo; carboplatin co-treatment 0 µM) | log2 surviving fraction (Ov4Carbo; carboplatin co-treatment 5 µM)
1 | NC12CC3CC(CC(C3)C1)C2 [Amantadine hydrochloride (Symmetrel)] | 0.662 | 0.362 | 0.265 | 0.525
2 | CCN(CC)CC(=O)Nc1c(C)cccc1C [Lidocaine (Alphacaine)] | -0.156 | -1.63 | 0.482 | -0.32
3 | COc1ccc(C2C(=O)c3ccccc3C2=O)cc1 [Anisindione] | 0.0266 | 0.0195 | 0.157 | 0.209
4 | C[C@@H]1CN(c2c(F)c(F)c3c(=O)c(C(=O)O)cn(C4CC4)c3c2F)C[C@H](C)N1 [Orbifloxacin] | 0.0374 | 0.568 | 0.0241 | 0.594
5 | CCCCCCCCCCCCCCCC[N+](C)(C)C [Cetrimonium Bromide] | -7.08 | -7 | -7.14 | -6.48
6 | CN(C)CCC[C@@]1(c2ccc(F)cc2)OCc2cc(C#N)ccc21 [Escitalopram oxalate] | 0.151 | 0.0872 | -1.11 | -1.35
7 | N[C@@H](Cc1cc(I)c(Oc2ccc(O)c(I)c2)c(I)c1)C(=O)O [Liothyronine Sodium] | 0.232 | -0.418 | 0.552 | 0.25
8 | CN(C)[C@@H]1C(O)=C(C(=O)NCN2CCCC2)C(=O)[C@@]2(O)C(O)=C3C(=O)c4c(O)cccc4[C@@](C)(O)[C@H]3C[C@@H]12 [Rolitetracycline] | -0.52 | -4.51 | -0.354 | 0.0729
9 | CN(CCOc1ccc(CC2SC(=O)NC2=O)cc1)c1ccccn1 (stereo not drawn) [Rosiglitazone maleate] | 0.482 | 0.37 | 0.852 | 0.475
10 | CC(=O)OCC(=O)[C@H]1CC[C@H]2[C@@H]3CCC4=CC(=O)CC[C@]4(C)[C@H]3CC[C@]12C [Deoxycorticosterone acetate] | 1.21 | 1.03 | 0.323 | 1.24
11 | O=c1[nH]c2ccccc2n1C1CCN(CCCC(c2ccc(F)cc2)c2ccc(F)cc2)CC1 [Pimozide] | -1.49 | -1.38 | -3.33 | -2.22
12 | C#CCN[C@@H]1CCc2ccccc21 [Rasagiline mesylate] | -0.936 | -0.479 | 0.0252 | -0.189
13 | CCCCCCCCCCCCCCSCC(=O)OC[C@H](COP(=O)([O-])OCC[N+](C)(C)C)OC(=O)CSCCCCCCCCCCCCCC [Phosphatidylcholine] | -1.04 | 0.752 | 0.0855 | 0.565
14 | CC1(C)S[C@@H]2[C@H](NC(=O)C(C(=O)O)c3ccccc3)C(=O)N2[C@H]1C(=O)O (stereo partly drawn) [Carbenicillin disodium] | -0.127 | -0.15 | 0.751 | 0.591
15 | O=C(Oc1ccccc1C(=O)O)c1ccccc1O [Sasapyrine] | 0.049 | -0.297 | -0.621 | -0.768
16 | O=C1CCc2cc(OCCCCc3nnnn3C3CCCCC3)ccc2N1 [Cilostazol] | 0.95 | 0.943 | -0.0949 | 0.275
17 | CCc1c(Cl)c(O)c(Cl)c(O)c1C(=O)O[C@H]1[C@H](O)[C@H](OC)[C@H](OC/C2=C\C=C\C[C@H](O)/C(C)=C/[C@H](CC)[C@@H](O[C@@H]3OC(C)(C)[C@@H](OC(=O)C(C)C)[C@H](O)[C@@H]3O)/C(C)=C/C(C)=C/C[C@@H]([C@@H](C)O)OC2=O)O[C@@H]1C [Fidaxomicin] | -0.197 | -0.592 | 0.283 | 0.0469
18 | C[C@@]12C[C@@]3(O)O[C@@H](O1)[C@]1(COC(=O)c4ccccc4)[C@H]3C[C@@]12O[C@@H]1O[C@H](CO)[C@@H](O)[C@H](O)[C@H]1O [Paeoniflorin] | 2.33 | 2.35 | 2.22 | 1.22
19 | c1cc(CN2CCCNCCNCCCNCC2)ccc1CN1CCCNCCNCCCNCC1 [Plerixafor (AMD3100)] | 0.203 | -0.988 | 0.2 | 1.23
20 | C=C[C@]1(C)C[C@@H](OC(=O)CSC(C)(C)CNC(=O)[C@H](N)C(C)C)[C@]2(C)[C@H](C)CC[C@]3(CCC(=O)[C@H]32)[C@@H](C)[C@@H]1O [Valnemulin HCl] | -1.63 | -0.836 | -2.52 | -2.24
21 | Cn1c(=O)c2c(ncn2CC(O)CO)n(C)c1=O (stereo not drawn) [Dyphylline (Dilor)] | 1.14 | 0.418 | -0.136 | 0.411
22 | O=C1[C@H](CC[C@H](O)c2ccc(F)cc2)[C@@H](c2ccc(O)cc2)N1c1ccc(F)cc1 [Ezetimibe (Zetia)] | -0.154 | -0.521 | 0.305 | -0.211
23 | CC/C(=C(\c1ccccc1)c1ccc(OCCN(C)C)cc1)c1ccccc1 [Tamoxifen Citrate (Nolvadex)] | -3.1 | -2.69 | -3.73 | -3.03
24 | CCOC(=O)c1c(CSc2ccccc2)n(C)c2cc(Br)c(O)c(CN(C)C)c12 [Arbidol HCl] | -0.303 | -1.14 | -0.671 | -0.621
25 | Cc1cc(N)c2ccccc2[n+]1CCCCCCCCCC[n+]1c(C)cc(N)c2ccccc21 [Dequalinium chloride] | -6.89 | -6.38 | -7.01 | -7.11
26 | CCN1CCN(C(=O)N[C@@H](C(=O)N[C@@H]2C(=O)N3[C@@H]2SC(C)(C)[C@@H]3C(=O)O)c2ccccc2)C(=O)C1=O [Piperacillin Sodium] | 0.863 | 0.479 | 0.0701 | 1.18

Row | Structure (SMILES) | log2 surviving fraction (OVCAR4; carboplatin co-treatment 0 µM) | log2 surviving fraction (OVCAR4; carboplatin co-treatment 5 µM) | log2 surviving fraction (Ov4Carbo; carboplatin co-treatment 0 µM) | log2 surviving fraction (Ov4Carbo; carboplatin co-treatment 5 µM)
27 | C[C@@H](c1ncncc1F)[C@](O)(Cn1cncn1)c1ccc(F)cc1F [Voriconazole] | -0.387 | 0.314 | -0.63 | 0.452
28 | OC(CCN1CCCCC1)(c1ccccc1)C1CC2C=CC1C2 (stereo not drawn) [Biperiden HCl] | -1.26 | -2.46 | -0.494 | -0.48
29 | CCCCC(=O)O[C@H]1CC[C@H]2[C@@H]3CCc4cc(O)ccc4[C@H]3CC[C@]12C [Estradiol valerate] | -0.194 | 0.36 | -1.18 | -2.07
30 | COC(=O)C1=C(C)NC(C)=C(C(=O)OCCN2CCN(C(c3ccccc3)c3ccccc3)CC2)C1c1cccc([N+](=O)[O-])c1 (stereo not drawn) [Manidipine (Manyper)] | -6.01 | -5.01 | -5.72 | -4.95
31 | CN1CCC(=C2c3ccccc3CC(=O)c3sccc32)CC1 [Ketotifen fumarate (Zaditor)] | 1.03 | 0.917 | -0.348 | 0.719
32 | NCC1(CC(=O)O)CCCCC1 [Gabapentin Hydrochloride] | 0.664 | -1.07 | -9.66 | -1.78
33 | CCCCc1oc2ccc(NS(C)(=O)=O)cc2c1C(=O)c1ccc(OCCCN(CCCC)CCCC)cc1 [Dronedarone HCl (Multaq)] | -7.76 | -6.39 | -6.88 | -6.9
34 | OCCN1C[C@H](O)[C@@H](O)[C@H](O)[C@H]1CO [Miglitol (Glyset)] | -0.00949 | 0.272 | -0.091 | 0.386
35 | Cc1ncc(C[n+]2csc(CCO)c2C)c(N)n1 [Thiamine HCl (Vitamin B1)] | -0.412 | -0.347 | 0.531 | 0.486
36 | CC#C[C@]1(O)CC[C@H]2[C@@H]3CCC4=CC(=O)CCC4=C3[C@@H](c3ccc(N(C)C)cc3)C[C@@]21C [Mifepristone (Mifeprex)] | -1.78 | -1.46 | -1.1 | -1.68
37 | Cc1cccc(C)c1NC(=O)CN1CCCC1=O [Nefiracetam (Translon)] | -0.0486 | 1.42 | 0.857 | 0.559
38 | Cc1ccccc1C(=O)Nc1ccc(C(=O)N2CCCC(O)c3cc(Cl)ccc32)c(C)c1 (stereo not drawn) | -1.12 | 0.333 | -0.0247 | -0.0615
39 | CCCCC1=NC2(CCCC2)C(=O)N1Cc1ccc(-c2ccccc2-c2nnn[nH]2)cc1 [Irbesartan (Avapro)] | 1.36 | 0.537 | -1.83 | 0.344
40 | COc1ccc(C(=O)N2CCCC2=O)cc1 [Aniracetam] | 0.811 | -0.427 | -0.477 | 1.23
41 | CC(C)NC[C@H](O)COc1ccc(CCOCC2CC2)cc1 [Levobetaxolol HCl] | 0.434 | -0.302 | -0.265 | 0.82
42 | CC(C)(Oc1ccc(CCNC(=O)c2ccc(Cl)cc2)cc1)C(=O)O [Bezafibrate] | 0.276 | 0.145 | -0.28 | 0.289
43 | [I-].[K+] [Potassium iodide] | 0.666 | 1.17 | 0.324 | 0.116
44 | CC(C(=O)O)c1cccc(C(=O)c2ccccc2)c1 (stereo not drawn) [Ketoprofen (Actron)] | 1.76 | 0.681 | -1.48 | 0.418
45 | COc1ccc(CC(C)NCC(O)c2ccc(O)c(NC=O)c2)cc1 (stereo not drawn) [Formoterol hemifumarate] | 0.229 | 0.145 | 0.257 | 1.36
46 | OC[C@@H](O)[C@@H](O)[C@H](O)[C@@H](O)CO [Sorbitol (Glucitol)] | 0.249 | 0.131 | 0.998 | 0.959
47 | N#CC(c1ccc(Cl)cc1)c1c(Cl)cc(-n2ncc(=O)[nH]c2=O)cc1Cl (stereo not drawn) [Diclazuril] | -0.394 | -0.156 | -1.6 | -1.9
48 | CS(=O)(=O)c1ccc([C@@H](O)[C@@H](CO)NC(=O)C(Cl)Cl)cc1 [Thiamphenicol (Thiophenicol)] | -0.728 | -0.111 | 0.562 | 0.62
49 | N#C[C@@H]1C[C@@H]2C[C@@H]2N1C(=O)[C@@H](N)C12CC3CC(CC(O)(C3)C1)C2 | 0.921 | 0.496 | 0.699 | -0.0672
50 | CC(C)CN(C[C@@H](O)[C@H](Cc1ccccc1)NC(=O)O[C@H]1CO[C@H]2OCC[C@H]21)S(=O)(=O)c1ccc(N)cc1 [Darunavir Ethanolate (Prezista)] | 0.829 | 0.0925 | 0.578 | 0.0192
51 | CCC(C)(C)C(=O)O[C@H]1C[C@@H](C)C=C2C=C[C@H](C)[C@H](CC[C@@H]3C[C@@H](O)CC(=O)O3)[C@H]21 [Simvastatin (Zocor)] | -4.93 | -3.99 | -3.22 | -7.05
52 | CC(=O)OCC(=O)[C@@]1(O)CC[C@H]2[C@@H]3CCC4=CC(=O)CC[C@]4(C)[C@H]3C(=O)C[C@@]21C [Cortisone acetate (Cortone)] | 0.58 | 0.543 | -0.747 | 0.567
